PubChem BioAssay AID1347428 (National Center for Advancing Translational Sciences (NCATS), 2020)
In all, about 91,000 compounds went through this assay and about 290 (0.32%) were called active. Inconclusive results, whose numbers are uncertain, are shown with a selection of clear calls. The call rests on the fitted dose curve; in most records, active means well fitted inhibition curve with a large enough effect; inconclusive means small, poorly fitted or top-dose-only effect; inactive means no such curve, though single readings can be large or run the other way. Potencies beside an inconclusive call are fits to weak or partial responses and may not hold up.

What follows are compounds tested against Single-stranded DNA cytosine deaminase (Homo sapiens) (UniProt Q9GZX7) (assay: Primary qHTS assay for inhibitors of Activation Induced Cytidine Deaminase (AID): AID signal). Details: AID deamination FRET fluorescence, UDG-coupled, 4 h; activity change, negative = inhibition: at 115 µM (top of the series).
Sequence of UniProt Q9GZX7 (Q9GZX7 whole entry, looked up): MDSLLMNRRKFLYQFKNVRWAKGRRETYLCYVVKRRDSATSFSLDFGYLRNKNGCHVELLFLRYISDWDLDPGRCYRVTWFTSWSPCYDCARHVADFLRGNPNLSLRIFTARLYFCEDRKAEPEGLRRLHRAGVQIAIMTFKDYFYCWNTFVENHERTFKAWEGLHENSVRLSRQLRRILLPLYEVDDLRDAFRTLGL
Further: nearly all actives have a fitted effect of over 25% in size.
On the % scale 0 is the no-effect control and ±100 the full control effect; potency means the concentration at half of the fitted maximal effect; tags describe the fitted curve by direction and shape.

SMILES | Potency | activity change, negative = inhibition
COc1cc(-c2nnc(SCC(=O)N3CCCc4ccccc43)o2)cc(OC)c1OC | inconclusive: 50.1 µM [inhibitor, partial curve, poor fit] | 
COc1ccc(N(CC(=O)Nc2ccc(Cl)cc2C)S(=O)(=O)c2ccccc2)c(OC)c1 | inconclusive: 17.8 µM [inhibitor, partial curve, poor fit] | 
COc1ccc(OC)c(CCNC(=O)C(C)n2nc(C)c3c(C)n(-c4ccc(C)cc4)nc3c2=O)c1 (stereo not drawn) | inconclusive: 39.8 µM [inhibitor, partial curve, poor fit] | 
CCOC(=O)C1=C(CN2CCN(Cc3ccccc3)CC2)NC(=O)NC1c1ccccc1 (stereo not drawn) |  | inactive: -12.3%
C/C(=N/Nc1cccc([N+](=O)[O-])c1)c1ccccn1 |  | inactive: -10.1%
Cc1ccc(NC(=O)CSc2nnc(-c3cc4occc4n3C)n2-c2ccccc2C)cc1F | inconclusive: 20 µM [inhibitor, full curve, poor fit] | 
CCN(C(=O)Cn1nc(Cc2cccnc2)c2ccccc2c1=O)c1cc(C)ccc1C | inconclusive: 50.1 µM [inhibitor, partial curve, poor fit] | 
Clc1cccc(-n2ncc3c(NCCCc4ccccc4)ncnc32)c1 | inconclusive: 17.8 µM [inhibitor, partial curve, poor fit] | 
COc1cc(C2Nc3c(C)cc(C)cc3-c3cc(C)nn32)ccc1O (stereo not drawn) |  | inactive: -8.71%
CCc1cccc(C)c1Nc1c(-c2ccc(N(C)C)cc2)nc2ncccn12 | inconclusive: 79.4 µM [inhibitor, partial curve, poor fit] | 
O=Cc1cc(O)c(Br)cc1Br |  | inactive: -3.78%
COc1cccc(NC(=O)CSc2nc(O)c(C/C=C/c3ccccc3)c(=O)[nH]2)c1 | inconclusive: 14.1 µM [inhibitor, partial curve, poor fit] | 
COc1ccc(C(=O)NC2(C(F)(F)F)C(=O)NC(C)=C2C#N)cc1 (stereo not drawn) | inconclusive: 100 µM [inhibitor, partial curve, poor fit] | 
NC(=O)CN1CCCC(C(=O)O)C1 (stereo not drawn) |  | inactive: 1.91%
Cc1ccc(C)c(-c2csc(NC(=O)CSc3nc4ccccc4o3)n2)c1 |  | inactive: -8.77%
CCOc1ccccc1NC(=O)CSc1nc2ccccc2nc1N1CCOCC1 | active: 22.4 µM | 
CC(C)C(=O)N/N=C/c1ccco1 |  | inactive: -2.22%
O=C(O)Cc1cccc2cccnc12 |  | inactive: 5.17%
CCOc1ccc(/C=C/c2nc(C#N)c(N3CCN(CC)CC3)o2)cc1 | inconclusive: 79.4 µM [inhibitor, single point] | 
COc1ccc(CCNC(=O)c2cnn(-c3ccc(F)cc3)c2C2CCN(C(=O)OC(C)(C)C)CC2)cc1OC | inconclusive: 50.1 µM [inhibitor, partial curve, poor fit] | 
Fc1ccccc1Nc1c2c(nc3ccccc13)CCC2 | inconclusive: 56.2 µM [inhibitor, partial curve, poor fit] | 
CCN(CC)c1cc(C)c2cc(NC(=O)c3ccc(OC)c(OC)c3)ccc2n1 | inconclusive: 79.4 µM [inhibitor, partial curve, poor fit] | 

SMILES | Potency | activity change, negative = inhibition
COc1cccc(CN(C(=O)COc2ccc(Cl)c(C)c2)C2CCS(=O)(=O)C2)c1 (stereo not drawn) | inconclusive: 56.2 µM [inhibitor, partial curve, poor fit] | 
O=C(Nc1cccc(F)c1)c1ccc2oc(=O)n(Cc3ccccc3)c2c1 | inconclusive: 20 µM [inhibitor, partial curve, poor fit] | 
CCOc1ccc(C2C(=O)N(C3CCCCCC3)CC(=O)N2Cc2ccc(C)cc2)cc1OC (stereo not drawn) | inconclusive: 50.1 µM [inhibitor, partial curve, poor fit] | 
Cc1cccc(N(CC(=O)NCCc2ccccc2)S(=O)(=O)c2ccccc2)c1C |  | inactive: -0.948% [at 57.5 µM]
Cc1ccc(OCC(=O)Nc2nnc(S(=O)(=O)N3CCc4ccccc43)s2)cc1 | inconclusive: 44.7 µM [inhibitor, partial curve, poor fit] | 
Cc1ccc(-n2ncc3c(Nc4ccc(Oc5ccccc5)cc4)ncnc32)c(C)c1 | inconclusive: 10 µM [inhibitor, partial curve, poor fit] | 
COc1ccc(Cl)cc1NC(=O)CSc1nc(=O)n(Cc2ccco2)c2c1CCC2 | inconclusive: 15.8 µM [inhibitor, full curve, poor fit] | 
COc1ccc(OC)c(C2C(C(=O)Nc3ccc(C)cc3C)=C(C)Nc3c(C(=O)Nc4ccc(F)cc4)cnn32)c1 (stereo not drawn) | inconclusive: 20 µM [inhibitor, full curve] | 
Cc1cc(=O)n(Cc2cccc(Cl)c2)c2c1c(C)nn2C | inconclusive: 44.7 µM [inhibitor, partial curve, poor fit] | 
O=C(NCC(=O)N(Cc1ccsc1)C1CC1)c1ccccc1 |  | inactive: -1.19%
Cc1cc(Nc2cccc(C(F)(F)F)c2)nc2ccc(NC(=O)Cc3ccc(Cl)cc3)cc12 | active: 35.5 µM | 
COc1cccc(CNC(=O)N2CCc3c(sc4c3CCCC4)C2c2ccc(F)cc2)c1 (stereo not drawn) | inconclusive: 12.6 µM [inhibitor, full curve, poor fit] | 
COc1ccc(Nc2cc(C)c3cc(NC(=O)c4ccccc4Cl)ccc3n2)cc1 | inconclusive: 2.82 µM [inhibitor, partial curve, poor fit] | 
CCCn1c2ccccc2c2cnn(CC(=O)NCC3CCN(Cc4ccc(C)cc4)CC3)c(=O)c21 | inconclusive: 28.2 µM [inhibitor, full curve] | 
O=C(CSc1nnnn1-c1cccc(F)c1)NCC1(N2CCOCC2)CCCCC1 |  | inactive: -6.21%
Cc1c(O)ccc2c(CN(C)CCOc3ccc(F)cc3)cc(=O)oc12 |  | inactive: -6.52%
COCCn1cnc2c1c(=O)n(CC(=O)OCc1cccc(F)c1)c(=O)n2Cc1ccccc1 |  | inactive: -6.33%
O=C(c1ccsc1)N(CC1CCOC1)C1CC1 (stereo not drawn) |  | inactive: 5.1%
Cc1ccccc1Nc1nn2c(=O)c3ccc(C(=O)NCC(C)c4ccccc4)cc3nc2s1 (stereo not drawn) | inconclusive: 11.2 µM [inhibitor, full curve] | 
CC(C)C[C@H](N)c1nnc(SCc2ccc(Cl)cc2Cl)o1 |  | inactive: -2.14%
Cc1ccc(C(=O)NC(Nc2ccccc2)C(Cl)(Cl)Cl)cc1 (stereo not drawn) |  | inactive: -16.4%
